# About 4,300 (8.3%) of roughly 52,000 compounds were called active. Cut-off read from the data, not from the text of the source: active = survival mostly below about 52% (no sharp cut-off); inactive = mostly above about 56%. The list shows a part of the results.
# System: DeltatarO mutant
# Assay: growth inhibition of S. aureus wild type versus tarO mutant, primary screen, teichoic acid synthesis inhibitors, RN4220, OD600 (AID 463173)
# Settings: OD600, 18 h, active compounds read low, screened at 18.75 µg/mL (by protocol)
row,Compound,survival
1,COc1ccc(OC)c(NC(=O)c2cnc(Nc3ccc(C)c(Cl)c3)c3ccccc23)c1,active: 44%
2,CCOc1ccc(NC(=O)c2c(NCc3cccnc3)sc3c2CCC(C)C3)cc1 (configuration not stated),inactive: 125%
3,CC(=O)c1sc(NC(=O)c2c(-c3ccccc3)c(-c3ccccc3)nn(C)c2=O)nc1C,inactive: 47%
4,CCN1CCN(C(=O)c2cnn(-c3ccc(F)cc3F)c2C2CCN(C(=O)OC(C)(C)C)CC2)CC1,inactive: 86%
5,CCN(CC)C(=O)Cn1c(=O)n(-c2ccc(C)c(C)c2)c(=O)c2c(C)c(C(=O)N(CC)CC)sc21,inactive: 95%
6,CCCCCN1C(C(=O)c2ccccc2)=C(NC(=O)c2ccc(C)cc2)c2ccccc2S1(=O)=O,inactive: 74%
7,CC1CCc2onc(C(=O)N3CCN(c4ccc(F)cc4)CC3)c2C1 (configuration not stated),inactive: 74%
8,CCOc1ccc(NC(=O)CCNS(=O)(=O)c2ccc3c(c2)CCCC(=O)N3)cc1,inactive: 66%
9,COc1cc(Cl)c(NC(=O)CCc2nc3cccnc3n2-c2ccccc2)c(OC)c1,inactive: 80%
10,Cn1c(CO)nc2cc(N)ccc21,inactive: 100%
11,CC1=C(C(=O)Nc2ccc(Cl)cc2)C(c2cccs2)n2nc(SCc3cccc(C)c3)nc2N1 (configuration not stated),inactive: 88%
12,O=C(CSc1nc2cc3ccccc3cc2[nH]1)Nc1ccc(F)cc1,inactive: 62%
13,O=C(NCCc1nc2ccccc2n1Cc1c(F)cccc1Cl)c1ccco1,inactive: 70%
14,CC(C)(C)OC(=O)N1CCC(c2c(C(=O)N3CCN(c4ccccc4F)CC3)cnn2-c2ccccc2Cl)CC1,inactive: 78%
15,Cc1ccc(NC(=O)c2cnc(SCC(=O)N3CCCc4ccccc43)n(C)c2=O)cc1,inactive: 74%
16,COc1cccc(N2C(=O)C(CC(=O)Nc3ccccc3)N(CCc3sccc3C)C2=O)c1 (configuration not stated),inactive: 64%
17,CCc1ccccc1NC(=O)CN1C(=O)C2CCCN2c2ccc(S(=O)(=O)N(CC)CC)cc21 (configuration not stated),inactive: 72%
18,Cc1ccc2oc(-c3cc(N=C/C=C/c4ccc5c(c4)OCO5)ccc3O)nc2c1,inactive: 83%
19,Cc1cccc(NC(=O)C2CCCN(S(=O)(=O)c3ccc4c(c3)oc(=O)n4C)C2)c1C (configuration not stated),inactive: 83%
20,COC(=O)c1c(NC(=O)COc2ccc(C)cc2Br)sc2c1CCCC2,inactive: 61%
21,Cc1ccc(CNC(=O)CN(C)S(=O)(=O)c2ccc3c(c2)c(=O)n(C)c(=O)n3C)cc1,inactive: 78%
22,CCOc1ccc(N(C)S(=O)(=O)c2cc(-c3cc(C)no3)ccc2OC)cc1,inactive: 81%

row,Compound,survival
1,CCS(=O)(=O)N1CC(=O)N(c2ccc(Cl)cc2C)C(C)(C(=O)NC2CCCCC2)C1 (configuration not stated),inactive: 86%
2,O=C(NCCc1ccc(F)cc1)C(=O)NCC(c1cccs1)S(=O)(=O)c1ccc(Cl)cc1 (configuration not stated),inactive: 74%
3,O=C(CSc1nnc(-c2ccccc2)c(-c2ccccc2)n1)NCCc1ccccc1,inactive: 83%
4,COc1ccc(C(=O)Nc2ccccc2C(=O)Nc2ccccn2)cc1,inactive: 94%
5,CCn1c(=O)c2cc(C(=O)NCc3ccc(F)cc3Cl)sc2c2ccccc21,inactive: 95%
6,Cc1ccc(C)c(N(C)C(=O)c2cc3c(s2)-c2ccccc2OC3)c1,active: -3%
7,Cc1cc(C)c(OCC(=O)N(Cc2ccc(N(C)C)cc2)CC2CCCO2)c(C)c1 (configuration not stated),inactive: 57%
8,Cc1c(CNC2CCC(C)CC2)c(C(=O)O)c(C)n1Cc1ccc(Cl)cc1 (configuration not stated),inactive: 83%
9,CCOC(=O)C(CC)Sc1ncnc2c1c(-c1ccccc1)cn2-c1ccc(OC)cc1 (configuration not stated),inactive: 58%
10,CCN(CC)c1ccc(NS(=O)(=O)c2cc(-c3onc(C)c3C)ccc2OC)c(C)c1,inactive: 78%
11,CC1CC2(C)CC(C)C1(COC(=O)Nc1ccccc1)CO2 (configuration not stated),inactive: 89%
12,Cc1ccc2c(=O)cc(C(=O)Nc3ccc(S(=O)(=O)N4CCCCC4C)cc3)oc2c1C (configuration not stated),inactive: 79%
13,CC(=O)Nc1cc(C(=O)NCc2ccc(F)cc2)ccc1S(=O)(=O)c1ccc(C)cc1,inactive: 78%
14,COc1ccc(NC(=O)c2cn3ccc(C)cc3n2)cc1,inactive: 50%
15,COc1cccc(-c2nnc(SCC(=O)N(C)c3ccccc3)o2)c1,inactive: 91%
16,CC(=O)c1ccc(NC(=O)C(C)n2nc(-c3ccccc3)ccc2=O)cc1 (configuration not stated),active: 32%
17,CCOC(=O)c1ccc(NC(=O)CC2C(=O)N(c3cccc(OC)c3)C(=O)N2Cc2cccnc2)cc1 (configuration not stated),inactive: 103%
18,CCn1c2ccccc2c2cc(CN3CCN(Cc4ccc(Cl)cc4)CC3)ccc21,active: -1%
19,Cc1cc(C)nc(/N=C2\NC(=O)CC3C(=O)NCCN23)n1 (configuration not stated),inactive: 100%
20,CCc1cccc(C)c1NC(=O)CCCn1c(C)c2cnn(-c3ccccc3)c(=O)c2c1C,inactive: 65%
21,CCCN(C(=O)Cc1nc(-c2ccc(OC)cc2)no1)c1ccccc1C,inactive: 85%
22,CCC(C)NC(=O)Cn1c(=O)n(CCCCCC(=O)Nc2ccccc2)c(=O)c2sccc21 (configuration not stated),inactive: 102%

row,Compound,survival
1,CCCCOC(=O)c1ccc(OC(=O)c2sc3ncn(Cc4cccc(F)c4)c(=O)c3c2C)cc1,inactive: 80%
2,CCOC(=O)c1[nH]c(C)c(CCC(=O)Nc2ccccc2OCC)c1C,inactive: 75%
3,CN1C(=O)CC(C(=O)Nc2ccc(C(=O)O)cc2)SC1=Nc1ccc(Cl)cc1 (configuration not stated),inactive: 67%
4,CNc1nc2c(c(=O)[nH]c(=O)n2C)n1Cc1cccc2ccccc12,inactive: 85%
5,Cn1c(=O)c2c(nc(NCCCCO)n2Cc2ccccc2Cl)n(C)c1=O,inactive: 63%
6,COc1ccc(C(=O)Nc2nnc(SCc3cc(=O)c4cccc(F)c4[nH]3)s2)cc1,inactive: 89%
7,COc1ccc2c(C)c(CCC(=O)NCCc3ccc(OC)c(OC)c3)c(=O)oc2c1,inactive: 88%
8,CN(C)CC(O)COc1ccc2ccccc2c1 (configuration not stated),inactive: 104%
9,Cc1ccnc(N2CCC(C(=O)NCc3ccc(F)cc3)CC2)n1,inactive: 86%
10,CCOc1ccc(-c2nn(-c3ccc(F)cc3)c3c2cnc2ccc(F)cc23)cc1,inactive: 81%
11,Cc1ccc2oc(-c3ccc(Cl)cc3)c(O)c(=O)c2c1,inactive: 72%
12,Cc1cc(O)c(C(c2ccccc2)N2CCN(c3ccccc3)CC2)c(=O)n1Cc1ccco1 (configuration not stated),inactive: 71%
13,O=C(NC1CC2CCCC(C1)N2C(=O)Nc1ccccc1)C1CC1 (configuration not stated),inactive: 61%
14,Cc1cccc(C)c1NC(=O)Cn1cc(C(=O)c2ccco2)c2ccccc21,inactive: 63%
15,O=C(Cn1ncc2c3ccccc3n(Cc3cccc(Cl)c3)c2c1=O)NCCCc1ccccc1,inactive: 93%
16,COc1ccc(-c2c(C)nn3c(-c4ccccc4)cc(C)nc23)cc1OC,active: 38%
17,CCc1nc(Nc2ccc(F)c(Cl)c2)c2c3c(sc2n1)CCCC3,active: -4%
18,COC(=O)c1cc2c(cc1NC(=O)c1cnn(-c3ccccc3)c1-n1cccc1)OCO2,inactive: 83%
19,CSc1nc(Nc2ccc(C)cc2C)cc(-c2ccccc2)n1,inactive: 51%
20,CCOC(=O)CNC(=O)CSc1cn(CC(=O)N2CCCCCC2)c2ccccc12,inactive: 92%
21,CN(Cc1ccccc1)C(=O)C1CCN(S(=O)(=O)c2ccc3c(c2)oc(=O)n3C)CC1,inactive: 94%
22,Cc1cccc(C(=O)Nc2nnc(S(=O)(=O)N(C)Cc3ccc(Cl)cc3)s2)c1,inactive: 95%

row,Compound,survival
1,CCCCCNC(=O)c1ccc2c(c1)ncn2-c1cccc(C)c1,active: 0%
2,O=C1COc2ccc(-c3cc(-c4ccc(Cl)cc4)c4c(n3)-c3ccccc3OC4)cc2N1,inactive: 136%
3,CCOc1ccc(C(=O)NCc2nnnn2-c2ccc(C)c(C)c2)cc1OCC,inactive: 69%
4,Cc1cc(C)c2[nH]c(=O)c(CN(CCCO)C3(c4nnnn4C4CCCC4)CCCC3)cc2c1,inactive: 84%
5,Cc1nc2cc(C(=O)NCCC3=CCCCC3)ccc2n1-c1ccc(Br)cc1,inactive: 60%
6,Cc1ccc(-n2c(=O)c3ccc(C(=O)NCc4ccccc4Cl)cc3n(CC(=O)Nc3cccc(Cl)c3)c2=O)cc1,inactive: 126%
7,CCc1nn(CC(=O)NCC(C)c2ccccc2)c(=O)c2cc3occc3n12 (configuration not stated),inactive: 120%
8,COC(=O)c1ccc(OCC2c3cc(OC)c(OC)cc3CCN2C(=O)c2ccccc2C)cc1 (configuration not stated),inactive: 93%
9,Cc1ccc(-c2nnc(Nc3ccc(Br)cc3)c3ccccc23)cc1S(=O)(=O)NCC1CCCO1 (configuration not stated),inactive: 92%
10,Cc1nc(N2CCCC2)c2c(C(=O)N3CCN(c4ccc(F)cc4)CC3)c(C)oc2n1,inactive: 85%
11,CCOC(=O)c1cc2c(ccn2C)n1CC(=O)N1CCCC(C)C1 (configuration not stated),inactive: 95%
12,O=C(OC1CSc2nc3ccccc3n2C1)c1ccco1 (configuration not stated),inactive: 80%
13,CCc1cccc(CC)c1NC(=O)c1c(C)oc2ccc(O)c(CN3CCN(C)CC3)c12,inactive: 91%
14,Cc1cccc(N2CCN(C(=O)Cn3ncc4c3-c3cc(C)ccc3OC4)CC2C)c1 (configuration not stated),active: 47%
15,Cc1cccc(Cn2c(=O)n(CC3CCC(C(=O)NC(C)C)CC3)c(=O)c3sccc32)c1 (configuration not stated),inactive: 91%
16,CSc1ccc(CCNC(=O)C2=C(C)C(=O)OC23CCCCC3)cc1,inactive: 85%
17,COc1ccc(NC(=O)CN2C(=O)C(C)(C)c3ccccc32)cc1Cl,inactive: 83%
18,COc1cccc(C2CC(=O)Nc3cc(OC)c(OC)c(OC)c32)c1OC(C)C (configuration not stated),inactive: 93%
19,COc1ccccc1CN1CCC(CNS(=O)(=O)c2cc(-c3onc(C)c3C)ccc2OC)CC1,inactive: 91%
20,Cc1nn(-c2ccccc2)c(OC(=O)c2cccc(Br)c2)c1S(=O)(=O)c1ccccc1,inactive: 74%
21,N#Cc1nc(-c2ccc(COc3ccccc3)o2)oc1NCc1cccnc1,active: 44%
